Measured values taken from PubChem BioAssay AID624173 (National Center for Advancing Translational Sciences (NCATS), 2012).
Screen size: about 410,000 compounds; about 490 (0.12%) were called active. This list was built around the results that the source calls inconclusive (neither active nor inactive); the mix of calls is not that of the screen. Calls follow the shape of the dose curve; as a rule, active = well fitted inhibition curve with a large enough effect; inconclusive = small, poorly fitted or top-dose-only effect; inactive = flat fitted curve, though single readings scatter. Where the call is inconclusive, the potency comes from a doubtful curve fit.

What follows are compounds tested against pyruvate kinase (Trypanosoma brucei) (UniProt Q57TT1) (assay: qHTS of Trypanosoma Brucei Inhibitors). Details: TbPYK enzyme, Kinase-Glo Plus ATP luminescence, 45 min; series mostly up to 76.8 µM; activity, negative = inhibition: at the top concentration.
Summary of the method: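 Luminescence from Kinase-Glo Plus, added after a 45-minute room-temperature reaction, served as the end-point read-out. The enzyme and substrate were preincubated with compound before ADP (130 uM final) initiated turnover. Concentration-effect curves came from normalized qHTS data.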
% is scaled to controls: 0 for no effect and ±100 for the full control effect; potency is read from the fitted curve at half-maximal effect; tags tell the direction and shape of the fitted curve.
Also: nearly all actives have a fitted effect of over 50% in size.

SMILES | Potency | activity, negative = inhibition
O=C(CSc1nnc(COc2ccccc2)o1)NCCc1ccccc1 | inconclusive: 20 µM [inhibitor, partial curve] | –
CC1(Cc2ccccc2OC(F)(F)F)C(=O)Nc2ccc(OC(F)(F)F)cc21 (stereo not given) | – | inactive: 1.14%
CCn1c(CC(=O)Nc2ccc(C)cc2)n[nH]c1=S | inconclusive: 39.8 µM [inhibitor, partial curve] | –
COc1ccc(-c2csc(NC(=O)CS(=O)(=O)c3ccccc3)n2)c(OC)c1 | – | inactive: -5.63%
CCOc1cc(NC(=S)NCC2CCCO2)c(OCC)cc1NC(=O)c1ccc(F)cc1 (stereo not given) | inconclusive: 31.6 µM [inhibitor, single point] | –
N#C/C(=C(/O)CN1CCOCC1)c1nc(-c2ccccc2)cs1 | – | inactive: 1.34%
COc1ccc(CC(=O)n2[nH]c(=O)cc(C)c2=O)cc1OC | inconclusive: 31.6 µM [inhibitor, single point] | –
CC(C)n1c(=O)[nH]c2ccccc21 | – | inactive: 1.3%
S=c1[nH]nc(-c2ccc(Cl)cc2)n1-c1cccnc1 | inconclusive: 11.2 µM [inhibitor, partial curve] | –
O=C(NN1CCOCC1)c1cccc2ccccc12 | inconclusive: 39.8 µM [inhibitor, partial curve, poor fit] | –
Nc1ccccc1SC(C[N+](=O)[O-])c1ccccc1 (stereo not given) | active: 12.6 µM | –
Cn1c(/C=C/c2ccccc2)nc2ccccc21 | inconclusive: 25.1 µM [inhibitor, partial curve] | –
Cc1ccc(-c2n[nH]c(=S)n2/N=C/c2cc3c(cc2[N+](=O)[O-])OCO3)cc1 | inconclusive: 0.891 µM [inhibitor, full curve, poor fit] | –
O=c1c(-c2n[nH]c(=S)n2-c2ccccc2)cccn1Cc1cccc(Cl)c1 | active: 12.6 µM | –
Oc1ccc(N2CCN(CC(O)c3ccccc3)CC2)cc1 (stereo not given) | inconclusive: 35.5 µM [inhibitor, single point] | –
CCn1ccc(C(=O)Oc2ccc(Cl)cc2)n1 | – | inactive: -2.56%
Cc1ccccc1-n1ncc2c1CC(C)(C)CC2NC(=O)c1cn[nH]c1C (stereo not given) | – | inactive: -3.66%
CCCN1C=CC(=C2C(=O)c3ccccc3C2=O)C=C1 | inconclusive: 28.2 µM [inhibitor, partial curve, poor fit] | –
CCn1c(-c2nn(C)cc2Cl)n[nH]c1=S | inconclusive: 17.8 µM [inhibitor, partial curve, poor fit] | –
CC1C=CCC2C(=O)N(c3cccc(C(=O)NCc4ccccc4)c3)C(=O)C12 (stereo not given) | inconclusive: 35.5 µM [inhibitor, partial curve] | –
Cc1ccc2[nH]c(=O)c(C(c3nnnn3CC3CCCO3)N3CCc4ccccc4C3)cc2c1 (stereo not given) | – | inactive: -23.5%
CCOC(=O)c1[nH]c(C)c(CCC(=O)NCc2ccccc2Cl)c1C | – | inactive: 2.39%
COc1ccccc1NS(=O)(=O)c1ccc(C)c(C(=O)N2CCN(c3ccc(O)cc3)CC2)c1 | inconclusive: 39.8 µM [inhibitor, partial curve, poor fit] | –
S=c1[nH]nc(C2CCCCC2)n1Cc1ccccc1 | inconclusive: 8.91 µM [inhibitor, partial curve, poor fit] | –
CCN(CC)S(=O)(=O)c1cccc(C(=O)N/N=C/c2ccc(O)c(O)c2O)c1 | inconclusive: 22.4 µM [inhibitor, partial curve, poor fit] | –

SMILES | Potency | activity, negative = inhibition
O=C(Cn1cc(SCc2ccc(C(F)(F)F)cc2)c2ccccc21)N1CCCC1 | inconclusive: 50.1 µM [inhibitor, single point] | –
CN(C(=O)c1ccc(NC(=O)Cc2ccc(NC(=O)C3CCCN(C(=O)CCc4ccccc4)C3)cc2)cc1)C1CC1 (stereo not given) | – | inactive: 1.26%
CC(C)Oc1cccc(C(=O)C2CCCN(Cc3ccon3)C2)c1 (stereo not given) | – | inactive: -2.06%
CCc1ccc2oc(-c3cc(NC(=O)C(C)C)cc(C)c3O)nc2c1 | – | inactive: -0.449%
CN(C(=O)COC(=O)c1nc(Cl)ccc1Cl)c1ccccc1 | – | inactive: -11%
c1ccc(Cc2nnc3n2CCCCC3)cc1 | inconclusive: 7.94 µM [inhibitor, full curve] | –
Cc1cnc(C(=O)Nc2ccc(C(C)C)cc2)cn1 | – | inactive: -5.45%
O=C(COC(=O)c1ccccc1C(=O)c1ccc(Cl)c([N+](=O)[O-])c1)NC1CCCCCC1 | inconclusive: 50.1 µM [inhibitor, single point] | –
CCCCN(C(=O)C(C)Oc1ccc(Br)cc1)c1c(N)n(Cc2ccccc2)c(=O)[nH]c1=O (stereo not given) | inconclusive: 1 µM [inhibitor, full curve] | –
CC(C)Cc1ccc(C(C)/C=C2/CCC(CN3CCCCC3)C2=O)cc1 (stereo not given) | – | inactive: -9.25%
CCOC(=O)c1c(N)sc(N)c1C(=O)OCC | inconclusive: 35.5 µM [inhibitor, partial curve] | –
COC(=O)c1ccc(/C=C/c2ccc3cccc(OC(C)=O)c3n2)cc1 | – | inactive: -10.8%
CCOC(=O)c1ccc(NC(=O)CC2SCCNC2=O)cc1 (stereo not given) | – | inactive: -6.84%
Cn1c(SCC(=O)c2cccs2)nnc1-c1ccco1 | inconclusive: 39.8 µM [inhibitor, single point] | –
COc1ccc(C(=O)Nc2ccccc2C(=O)NC(Cc2ccc(O)cc2)C(=O)NNC(=O)c2ccccc2Cl)cc1 (stereo not given) | – | inactive: -4.78%
CCCCc1n[nH]c(=S)n1Cc1ccc(Cl)cc1 | active: 10 µM | –
O=C1NC(=O)N(c2ccc3c(c2)OCO3)C(=O)/C1=C/c1ccsc1 | inconclusive: 25.1 µM [inhibitor, partial curve] | –
CCC(C(=O)NC1CC1)n1nc(C)c2c(C)n(-c3ccc(C)cc3)nc2c1=O (stereo not given) | – | inactive: 0.113%
O=c1c2ccccc2sn1-c1ccccc1 | inconclusive: 12.6 µM [inhibitor, partial curve, poor fit] | –
Oc1cccc(/C=N/n2c(C3CCCCC3)n[nH]c2=S)c1 | inconclusive: 12.6 µM [inhibitor, partial curve, poor fit] | –
O=C1C2CC=CCC2C(=O)N1SC(Cl)(Cl)Cl (stereo not given) | inconclusive: 14.1 µM [inhibitor, partial curve] | –
Cn1cccc1C(=O)C(=O)Nc1ccccc1 | inconclusive: 31.6 µM [inhibitor, single point] | –
CC12CCC(C1)C(C)(C)C2=O (stereo not given) | – | inactive: -5.09%
Cc1ccccc1OCCn1c(=S)[nH]c2ccccc21 | inconclusive: 1.58 µM [inhibitor, full curve, poor fit] | –
O=C1CCC(C(=O)Nc2cccc(S(=O)(=O)Nc3ccccc3F)c2)=NN1 | inconclusive: 15.8 µM [inhibitor, partial curve, poor fit] | –

SMILES | Potency | activity, negative = inhibition
Cc1c(NC(=O)/C=C/c2cn(-c3ccccc3)nc2-c2ccc(F)cc2)c(=O)n(-c2ccccc2)n1C | inconclusive: 50.1 µM [inhibitor, single point] | –
CN(C)c1ccc(N/C=C/C(=O)c2ccccc2)cc1 | inconclusive: 28.2 µM [inhibitor, partial curve, poor fit] | –
CC1=CC(=O)NP(=O)(Oc2ccc3ccccc3c2)N1 (stereo not given) | inconclusive: 50.1 µM [inhibitor, single point] | –
Cc1ccccc1-c1nc(CS(=O)(=O)CC(=O)NCc2cccc(Cl)c2)c(C)o1 | – | inactive: 3.62%
O=c1cc(CCc2ccccc2)oc2cccc(O)c12 | – | inactive: -20.5%
CC1CCN(C(CC(=O)c2ccccc2)C(=O)c2ccccc2)CC1 (stereo not given) | active: 20 µM | –
Oc1ccc(Br)cc1-c1n[nH]c(=S)n1Cc1ccccc1 | inconclusive: 25.1 µM [inhibitor, partial curve] | –
O=C(CCS(=O)(=O)Cc1ccccc1)Nc1nc2c(s1)CCCC2 | – | inactive: -6.87%
Cc1cc(C)c(S(=O)(=O)/N=C2/C=C(Sc3ncn[nH]3)C(=O)c3ccccc32)cc1C | active: 5.62 µM | –
C=CCSc1nncn1/N=C/c1ccc(OC)cc1 | – | inactive: -12.2%
CC(N)c1csc(Nc2ccc(C(=O)NCCO)cc2)n1 (stereo not given) | – | inactive: 2.31%
Cn1c(CNS(=O)(=O)c2ccc(Br)cc2)n[nH]c1=S | inconclusive: 31.6 µM [inhibitor, partial curve, poor fit] | –
O=C1NC(=O)C(=Cc2ccsc2)C(=O)N1 | inconclusive: 31.6 µM [inhibitor, partial curve] | –
CCOC(=O)c1ccc(N2CSC3=C(C#N)C(c4cccs4)CC(=O)N3C2)cc1 (stereo not given) | inconclusive: 28.2 µM [inhibitor, partial curve] | –
CCOC(=O)c1c(C)[nH]sc1=S | inconclusive: 12.6 µM [inhibitor, partial curve] | –
Cc1cc(C)cc(NC(=O)C2CCN(C(=O)[C@@H]3Cc4ccccc4CN3)CC2)c1 | inconclusive: 50.1 µM [inhibitor, single point] | –
CC(C)CCN(Cc1ccco1)C(=O)c1cc2c(Cl)nc3ccccc3c2s1 | – | inactive: -5.28%
CC1CN(C(C)C)C(=S)NC1=O (stereo not given) | inconclusive: 50.1 µM [inhibitor, single point] | –
CC(=O)C(C(C)=O)c1c(Cl)c(O)c(O)c2c(C(=O)c3ccccc3)coc12 | inconclusive: 31.6 µM [inhibitor, partial curve] | –
Cc1ccc(-c2n[nH]c(=S)n2/N=C/c2cccs2)cc1 | inconclusive: 2.51 µM [inhibitor, full curve] | –
COc1cccc(CN2CCN(Cc3[nH]c4ccccc4c3C)CC2CCO)c1 (stereo not given) | – | inactive: -5.37%
Cc1ccc(-n2nc(-c3ccco3)cc2C(=O)NCc2cccnc2)cc1 | inconclusive: 31.6 µM [inhibitor, single point] | –
O=C(NCc1n[nH]c(=S)n1-c1ccccc1)c1ccco1 | inconclusive: 28.2 µM [inhibitor, partial curve, poor fit] | –
S=c1[nH]nc([C@@H]2C[C@H]2c2ccccc2)n1-c1ccccc1 | active: 3.98 µM | –
COc1ccccc1/C=N/NC(=O)c1[nH]c(C)c(C(=O)N/N=C/c2ccccc2OC)c1C | – | inactive: -0.0863%
